Hit rate of the full screen: of about 420,000 compounds, about 50,000 (12%) were called active. The shares of active, inactive and inconclusive entries below differ from those in the screen. Calls come from the whole dose curve; as a rule, active = well fitted inhibition curve with a large enough effect; inconclusive = small, poorly fitted or top-dose-only effect; inactive = flat fitted curve, though single readings scatter. Potencies of inconclusive entries are left out as doubtful fits.
Test: qHTS for Inhibitors of human tyrosyl-DNA phosphodiesterase 1 (TDP1): qHTS in cells in presence of CPT; note: nearly all actives have a fitted effect of over 55% in size
Details: chicken DT40 Tdp1-/-;hTDP1 cells + 20 nM CPT, ATP luminescence, 48 h; series mostly up to 46.2 µM
How it was run: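 Chicken DT40 Tdp1-/- cells stably complemented with human TDP1 were seeded at 400 cells/well in medium containing 20 nM camptothecin, exposed to pin-transferred compounds, and grown at 37 °C for at least 48 hr. Viability was read as ATP luminescence.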
Potency is the fitted concentration of half-maximal effect; tags give direction and shape of the fitted curve.

Structure (SMILES) | Potency
Cc1nn(-c2ccccc2)c(Cl)c1C(=O)NNC(=O)c1ccccc1O | inconclusive [inhibitor, single point]
CN(CC(=O)Nc1sccc1C#N)S(=O)(=O)c1ccc(F)cc1 | inactive
CCOc1ccc(C(=O)OCC(=O)NCc2ccco2)cc1OCC | inactive
Clc1ccc(Oc2nc(Oc3ccc(Cl)cc3)nc(N3CCOCC3)n2)cc1 | inconclusive [inhibitor, partial curve, poor fit]
CC(NC(=O)c1ccc(Br)cc1)c1ccc2c(c1)CCCC2 (stereo unspecified) | inconclusive [inhibitor, single point]
COc1ccc(C(=O)Nc2cc3c(cc2C(=O)O)OCCCO3)c(OC)c1 | inactive
COc1ccc(-n2nc(C(=O)NCC(=O)NCC3COc4ccccc4O3)c3ccccc3c2=O)cc1OC (stereo unspecified) | inconclusive [inhibitor, partial curve]
CCCCC(=O)Nc1ncc(Br)s1 | inactive
N#Cc1ccc(-c2nc3ccc(Cl)cn3c2Cc2ccccc2C(F)(F)F)cc1 | inconclusive [inhibitor, single point]
CCN(CC)CCNC(=O)CSc1nc2nc(C)c(Cc3ccccc3)c(C)n2n1 | inactive
O=c1cc2c(=O)oc3cc(O)c(O)oc3c2c(O)c1O | inconclusive [inhibitor, single point]
COc1ccc(CCNc2nc(Cl)nc(NC(C)(C)CO)n2)cc1OC | inconclusive [inhibitor, partial curve]
Cc1cc2c(cc1C)CSC(c1ccccc1OC(=O)C(C)C)SC2 | inconclusive [inhibitor, single point]
O=C(/C=C/[C@H]1O[C@@H](n2ccc(=O)[nH]c2=O)[C@H](O)[C@@H]1O)N1CCN(CCc2ccccc2)CC1 | inactive
COC(=O)[C@]1(Cc2ccccc2)N[C@H](CN(C)C(=O)Nc2ccc(OC)cc2)[C@@H]2C(=O)N(Cc3ccccc3)C(=O)[C@@H]21 | active: 18.4 µM
COc1ccc2[nH]c(=O)c(CN(CCc3cccc(C)c3)C(C)=O)cc2c1 | inconclusive [inhibitor, partial curve]
COc1ccc(CN(C)C(=O)COC(=O)c2ccc(-c3ccccc3)cc2)c(OC)c1OC | inactive
O=S(=O)(Nc1cccc(-n2cnnn2)c1)c1ccccc1F | inactive
Cc1cccn2c(Nc3ccccc3)c(-c3cccs3)nc12 | inconclusive [inhibitor, single point]
COc1ccccc1NC(=O)CSc1nc2nccnc2c(=O)n1CCc1c[nH]c2ccccc12 | active: 18.4 µM
COc1cccc(CNC(=O)Cc2ccc(NC(=O)N3CCSc4ncccc43)cc2)c1OC | inconclusive [inhibitor, partial curve]
CCC(C(=O)NC1CCCC1)N(C(=O)Cn1nnc(-c2ccc(C)o2)n1)c1ccc(F)cc1 (stereo unspecified) | inactive
O=C(NC1CCCC1)C1CCN(C(=O)c2ccccc2Cl)CC1 | inactive
COc1ccc(NS(=O)(=O)c2cc(NC(=O)COc3ccc(OC)cc3)ccc2N2CCOCC2)cc1 | inconclusive [inhibitor, partial curve]

Structure (SMILES) | Potency
CCOC(=O)c1nn(-c2ccccc2C)c(=O)c2c(N)scc12 | inconclusive [inhibitor, partial curve]
CCOCCCn1c(SCC(=O)Nc2oc(C)c3c(C)n[nH]c(=O)c23)nc2ccccc2c1=O | active: 23.1 µM
Cc1[nH]c2ccccc2c1C(c1ccccc1)c1ccc(Cl)s1 (stereo unspecified) | inconclusive [inhibitor, single point]
CC1CN(C(=O)c2ccn(C)n2)CC(C)O1 (stereo unspecified) | inactive
O=C(NCc1cccnc1)c1nc(-c2ccccc2)n(-c2ccccc2)n1 | inconclusive [inhibitor, single point]
CCCCOC(=O)CSC1=C(C#N)C(c2ccc3c(c2)OCO3)CC(=O)N1 (stereo unspecified) | inactive
Cc1oc(-c2ccccc2F)nc1CS(=O)(=O)CC(=O)N1CCN(Cc2ccccc2)CC1 | inconclusive [inhibitor, partial curve]
O=C(c1cc([N+](=O)[O-])ccc1Cl)N1CCc2ccccc21 | inactive
Cc1cccc(C(=O)NC2CC3CCC(C2)N3C)c1 (stereo unspecified) | inactive
C[C@H](CC[C@@H]1OC1(C)C)C1CC[C@H]2[C@@H]3CC=C4C[C@@H](O)CC[C@]4(C)[C@H]3CC[C@]12C (stereo partly specified) | inconclusive [inhibitor, single point]
C=CCNC(=O)c1ccc(CSc2nc3ccccc3s2)cc1 | inconclusive [inhibitor, partial curve, poor fit]
Cc1nc2c(c(=O)n1CCC1=CCCCC1)c1nc3ccccc3nc1n2/N=C/c1ccccc1 | inconclusive [inhibitor, partial curve]
O=C(Nc1ccc2ccccc2c1)C(C1CC1)n1c(=O)c(-c2cc3ccccc3[nH]2)nc2ccccc21 (stereo unspecified) | inconclusive [inhibitor, single point]
COc1ccnc(Oc2ccccc2)c1-c1ncn[nH]1 | inactive
c1coc(CNc2ncnc3sc4c(c23)CCCCC4)c1 | inconclusive [inhibitor, single point]
O=C(NCc1ccccc1)c1cccc(COc2cccc(Cl)c2)c1 | inconclusive [inhibitor, single point]
CC(OC(=O)CCc1c[nH]c2ccccc12)C(=O)c1ccccc1 (stereo unspecified) | inactive
Cc1cc(C)nc(NS(=O)(=O)c2ccccc2)n1 | inactive
CC(C)(C)c1cc(NC(=O)c2ccco2)no1 | inactive
COc1ccc(-c2nc3ccccc3n2CCC(C)C)cc1OC | inconclusive [inhibitor, single point]
Cc1c(NC(=O)c2nn(C(C)C)c(=O)c3ccccc23)c(=O)n(-c2ccccc2)n1C | inactive
CCc1[nH]nc2c1C(C(C)C)C(C#N)=C(N)O2 (stereo unspecified) | inconclusive [inhibitor, partial curve, poor fit]
CCOc1ccc(S(=O)(=O)N2CCN(C(=O)C3CCC3)CC2)cc1 | inconclusive [inhibitor, single point]
COc1cc(NC(=O)CN(c2ccc(C)cc2)S(=O)(=O)c2c(C)nn(C)c2C)cc(OC)c1 | inconclusive [inhibitor, single point]

Structure (SMILES) | Potency
CCOC(=O)c1ccccc1NC(=O)COC(=O)c1cc([N+](=O)[O-])ccc1N1CCOCC1 | inconclusive [inhibitor, single point]
CN(C)c1ccc(/C=C/c2nc3ccccc3c(=O)n2CCO)cc1 | active: 18.4 µM
Cc1ccc(NC(=O)C2CCN(S(=O)(=O)c3ccc4[nH]c(=O)ccc4c3)CC2)cc1C | inactive
CC(C)(C)NC(=O)N1CCN(c2ncccc2C(F)(F)F)CC1 | inactive
Brc1ccc(CSc2nnc(-c3ccccn3)n2Cc2ccco2)cc1 | active: 14.6 µM
CCc1ccc(N2CC(O)=C(c3nc4ccccc4c(=O)[nH]3)C2=N)cc1 | inconclusive [inhibitor, single point]
CCOc1ccc2c(c1)C(N(CCN1CCOCC1)C(=O)Nc1ccc(OC)cc1OC)CC(C)(C)O2 (stereo unspecified) | inconclusive [inhibitor, single point]
CCc1ccc(CN(Cc2ccco2)c2cnc(S(C)(=O)=O)nc2C(=O)Nc2c(C)cccc2C)cc1 | active: 16.4 µM
O=S(=O)(c1ccccc1)c1nc(-c2cccs2)oc1NCC1CCCO1 (stereo unspecified) | inactive
CCCc1cc(N2CCN(c3ccccc3)CC2)n2cnnc2n1 | inconclusive [inhibitor, single point]
COc1cc(/C=C/C(=O)OCC(=O)NC(=O)NC(C)C)cc(S(=O)(=O)N2CCc3ccccc32)c1OC | inconclusive [inhibitor, single point]
CCOC(=O)N1CCN(C(=O)c2cc3c(s2)-c2ccccc2OC3)CC1 | inconclusive [inhibitor, partial curve, poor fit]
CCc1cccc(CC)c1NC(=O)Cn1c(=O)c(-c2cc(C)ccc2NC(C)=O)nc2ccccc21 | inactive
Cc1cc(-n2c(C)cc(C(=O)COc3ccc4ccc(=O)oc4c3)c2C)no1 | inconclusive [inhibitor, single point]
CCCCNc1c(-c2ccc(-c3cccc(Cl)c3)cc2)nc2ccc(Cl)cn12 | inconclusive [inhibitor, partial curve]
CN(C)c1ccc(C=NN2C(=O)CSC2=S)c(Cl)c1 | inconclusive [inhibitor, single point]
Cn1c(CSc2nc3ccccc3s2)nnc1SCC(=O)NCCCN1CCOCC1 | inactive
CC(N)c1csc(Nc2ccc(C(=O)c3ccccc3)cc2)n1 (stereo unspecified) | inconclusive [inhibitor, single point]
CCOC(=O)c1ccc(-c2ccc(/C=C(\C#N)C(=O)NCC3CCCO3)o2)cc1 (stereo unspecified) | active: 20.6 µM
Cc1ccc(C(=O)NC2CCCc3ccccc32)cc1[N+](=O)[O-] (stereo unspecified) | inconclusive [inhibitor, single point]
Cn1c(=NC(=O)c2ccc(S(=O)(=O)N3CCCC3)cc2)sc2cc(F)ccc21 | inactive
CN(C)CCNc1nc(-c2ccccc2F)c2sccc2n1 | inconclusive [inhibitor, single point]
CCOc1ccccc1/C=C/c1onc(C)c1S(=O)(=O)N1CCC(C(=O)NC)CC1 | inconclusive [inhibitor, single point]
